Reference: paper PMC12113829 (Microorganisms, 2025)

Biological target: T1, HLPPM19 (Trx-HLPPM19-ΔTM-His-Strep) (Candidatus Phytoplasma mali, UniProt A0A6B9D751)
T1 construct: N-terminally truncated, transmembrane region deleted; N-terminal Trx, C-terminal 6xHis and Strep tags kept; E. coli BL21(DE3); fusion 57 kDa
Assay type: biochemical
Settings: binding: labelled compound 0.1 µM, protein 10 µM, 10 mM MgCl2, 1 mM ATP, pH 8.0, on ice; hydrolysis: Mg acetate, pH 7.5, rt

For `Nc1nc2c(ncn2[C@@H]2O[C@H](COP(=O)(O)OP(=O)(O)OP(=O)(O)O)[C@@H](O)[C@H]2O)c(=O)[nH]1` [GTP], the “nitrocellulose spot binding of [α32P]GTP, phosphor imager; also TLC phosphate re” value was “Trx-HLPPM19-ΔTM-His-Strep not only binds GTP but also hydrolyzes GTP, releasing monophosphate”.
